B1: CPEB3 Ribozyme (parent)
chain: UAACAGGGGGCCACAGCAGAAGCGUUCACGUCGCAGCCCCUGUCAGAUUCUGGUGAAUCUGCGAAUUCUGCUGUAUAUCUC

The source gives no read counts; variants with many changes may rest on few reads.

In the data set the parent is B1. Briefly: self-cleavage, relative activity (ratio to wild type); higher = more cleavage; in vitro, sequencing. An outline of the steps:
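After error-prone PCR and barcoding, CPEB3 ribozyme mutant libraries were transcribed with T7 RNA polymerase at 37°C for 5 hours, then given 15 min with DNase I before an EDTA stop, and they cleaved during both steps. Reverse transcription with template switching preceded Illumina sequencing. Relative activity divides a variant's cleaved/total read fraction by the unmutated ribozyme's. At least 5 reads were required per variant, and three batches were averaged.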
For G19U A64G U66C U78C, the self-cleavage came out at 0.12. The value for A18G U41A U43C U49C U80C was 0.08; that for G19A C44A A56G U78G was 0.15.

With A18G U31C C50U, the self-cleavage came to 0.18. The value for A18U U25A U26G C32U A35C U49C A77U was 0.06; that for A18G U41A A64U was 0.25; that for A18U U49C U67A was 0.04. In the case of A18U A21G C39U A57G, the self-cleavage came out at 0.1.

As to A18G U31A A45G U51A, the self-cleavage amounted to 0.23.

Regarding A18U U31A A56U, the self-cleavage was found to be 0.11.

As to A20G A28G A35C U67C, the self-cleavage was 0.28. With A18U A28G A35G A45G U67C, the self-cleavage was determined as 0.07.

On to A18U U49C U80C, for which the self-cleavage is 0.22. As to A18G U48C U51G A77U, the self-cleavage amounted to 0.48. Under A18G U43C U54G stands 0.47; under G19A C34A A35U A45G U72A, 0.21. Under A18U U26A U41C A47G U48C U72C stands 0.25. Under G19A C29G U31C stands 0.15; under A18U C29G U41A U54C A57U U78C, 0.05; under A18G U26C A28U A45U A64G U66C, 0.42. On to A18U A20G A35G A45U U72C, for which the self-cleavage was 0.15. Under A20G A21G A28C A47G stands 0.37; under A18G U31C A56G A65G U67C U74C A77G, 0.11; under A18U A47G C62U, 0.29. The value for A18G U31C U41A U66C was 0.06. Under G19C A28U U41C stands 0.19; under G19C A28U U41G, 0.07; under A18U C34A U41C U49C U60G A77G, 0.05. Consider A18U A20G C40A A56G A57U A65G U72A, for which the self-cleavage came to 0.05. Under G19U G24A U41C U54A stands 0.25.

A18U U26A C59A: the self-cleavage worked out at 0.19. The value for A18G U43A A65G U72A U78C was 0.36.

Consider A18U U25C C39U A45G, for which the self-cleavage came out at 0.11. The value for A18U G33A C81U was 0.16. The value for A18U U41C U43C was 0.26; that for A18U A28G U66C U76C C79G was 0.17; that for A18U C38G U41C was 0.12. Under A18U U41C U60C A75G stands 0.2. Consider A20G A21C U31G C40U U54C U60C, for which the self-cleavage is 0.04. The value for A18G U43A U51C U72C was 0.64. For A18G U31C G33A, the self-cleavage is 0.05. For G19C U58C U72A U76C A77G, the self-cleavage came to 0.07. Under A18G U25C U78C stands 0.16; under G19A U49A U80C, 0.11; under G19A A28G A45G A56G A75G U80C, 0. Under G19C U49A U67C stands 0.14; under A18G U43C U49C, 0.16.

For the variant A18U A28U U67A, the self-cleavage came out at 0.15.

For the variant A18U U25C A56G A64G A77G, the self-cleavage came out at 0.06. Under A18U A20G A45G U48C U58A stands 0.07.

Take A18G U43A A77U: the self-cleavage was found to be 0.93.

On to A18U G19C A35G, for which the self-cleavage worked out at 0.3. The value for A18G U48C U51A A57G U72C was 0.49; that for A18U U48C U67C was 0.12; that for A18U A35G U60C U66C was 0.17.

In the case of G19A A20G U76A, the self-cleavage turned out to be 0.23. Under A18U C38A A47G stands 0.22; under G19U A21G U31C C50A, 0.21. The value for A18G U58C U67C was 0.18; that for A18G U48C U67A G70A U72C U78C was 0.14; that for G19U G55A A57G U60C was 0.11.

Regarding A18G U60C A64G, the self-cleavage worked out at 0.17. The value for A18U A20G A28G was 0.56. The value for A18U C40G U41C U58G U60C C62G U67C was 0.08; that for A18G U26A G42A A47U was 0.04; that for G19C A35G U51C A77U U78C was 0.51. Under A18G U49G U60C U76C U78C stands 0.11. Take A18U A20C U51C U66C: the self-cleavage was found to be 0.3. In the case of A18U U48A U60C, the self-cleavage came out at 0.06. Regarding A18U C44A U60C U67C, the self-cleavage was found to be 0.13. The value for A18U A45G A56G C71U was 0.07; that for A18G U41C A45G was 0.41; that for A18U A21G C40G A64G was 0.05. The value for A18U U41C G61A U69A C79U U80A was 1.12; that for A20G A21G A28C G42A U49A was 0.32.

For G19A G33A A56G U80C, the self-cleavage was determined as 0.07. Under G19A U51G U72A stands 0.07. As for A20C U58C U72A, the self-cleavage turned out to be 0.12.

As for G19U C23U A57U, the self-cleavage was determined as 0.47. Under A18U U26A A75G stands 0.15. Under A18U A47G U60C G63U U69C U80C stands 0.12; under A18U G52U C68U G73C A75G, 0.57; under A18U U25C A35C A56G, 0.06.

These data come from the RNAGym collection of RNA variant scans (doi:10.1093/nar/gkz1192).
